Source: PubChem BioAssay AID493208 (National Center for Advancing Translational Sciences (NCATS), 2011)
The whole screen tested about 44,000 compounds, of which about 340 (0.77%) were called active. About 5% were inconclusive and are not listed. Calls follow the shape of the dose curve; as a rule, active = well fitted inhibition curve with a large enough effect; inconclusive = small, poorly fitted or top-dose-only effect; inactive = flat fitted curve, though single readings scatter. This is one part of the list.

Assay: Acumen qHTS Assay for Inhibitors of the mTORC1 Signaling Pathway in MEF (Tsc2-/-, p53-/-) Cells: Sytravon;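 also: plate controls were DMSO for no effect and rapamycin for full effect; nearly all actives have a fitted effect of over 50% in size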
Settings: phospho-rpS6 immunofluorescence/PI, 24 h; series mostly up to 38.3 µM; activity change, negative = inhibition: at the top concentration
In short: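 Plate MEFs (Tsc2-/-, p53-/-, empty vector) in DMEM/10% FBS; after 24 h add compound, incubate 24 h at 37 degree Celsius; fix in PFA/TX-100, block, stain phospho-rpS6 and 10 uM PI; scan at 488 nm; report % positive cells.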

SMILES	activity change, negative = inhibition
CC1=C(C(=O)Nc2ccc(C)cc2C)C(CC(C)C)n2nc(SCc3ccccc3C)nc2N1 (configuration not stated)	inactive: -25.6%
O=c1c2sc3ccccc3c2n(Cc2ccc(F)cc2)c(=O)n1Cc1ccccc1	inactive: -5.11%
CCc1cccc(CC)c1NC(=O)CCS(=O)(=O)c1ccc(Br)cc1	inactive: -5.6%
COc1ccc(-c2ccc(NS(=O)(=O)c3ccccc3)cc2)nn1	inactive: -3.43%
CCOc1ccc(-c2cc(C(=O)NCc3ccc(OCC)c(OC)c3)[nH]n2)cc1	inactive: -2.74%
Cc1cc(C)n2nc(SCC(=O)Nc3ccc(O)cc3)nc2n1	inactive: -5.85%
Cc1ccc(NC(=O)CSc2ncccc2C(=O)Oc2ccccc2Cl)cc1Cl	inactive: 13.3%
COc1ccc2[nH]cc(CCNC(=O)Nc3c(C)cccc3C)c2c1	inactive: -2.47%
CCOC(=O)c1cc(-c2ccccc2)n(CCC(=O)Nc2ccc(OC)c(Cl)c2)c1C	inactive: -6.31%
COc1cc(C)ccc1OCCSc1nc2ccc(NC(=O)c3ccc4c(c3)OCO4)cc2s1	inactive: 0.228%
Cc1ccccc1-c1nc2c(c(SCc3cccc(Cl)c3)n1)Cc1c(CO)cnc(C)c1O2	inactive: 6.3%
Cc1cc(NC(=O)CN(C)S(=O)(=O)c2ccc3c(c2)CCCC(=O)N3)ccc1Br	inactive: -10.4%
CCc1ccc(NC(=O)Cn2c(=O)n(CCCC(=O)NCc3ccccc3OC)c(=O)c3ccccc32)cc1	inactive: -10.5%
COc1cc(-c2nc(Cn3nnc(C(=O)Nc4ccccc4C)c3C)c(C)o2)cc(OC)c1OC	inactive: -1.78%
COc1ccc(C)cc1NC(=O)c1ccc2c(c1)N(Cc1cccc(Cl)c1)C(=O)c1ccccc1S2=O (configuration not stated)	inactive: -6.28%
Clc1cccc(N2CCN(c3nc4ccccc4c4nc(-c5cccnc5)nn34)CC2)c1	inactive: 0.312%
CC(=O)N1c2ccc(S(=O)(=O)N3CCCCCC3)cc2CC1C(=O)NCc1cccc(F)c1 (configuration not stated)	inactive: 0%
Cc1ccc(S(=O)(=O)c2nc(-c3cccs3)oc2SC(C)c2ccccc2)cc1 (configuration not stated)	inactive: -16.4%
CCOc1ccc(CC(=O)NCCS(=O)(=O)N2CCN(c3ccccc3OC)CC2)cc1	inactive: -14.4%
CCS(=O)(=O)N1CCc2cc(C(=O)N3CCN(c4ccccc4)CC3)ccc21	inactive: 0.335%
CCCCC(=O)Nc1cc(-c2nc3ccccc3o2)ccc1OC	inactive: 2.48%
CCOC(=O)c1noc2ncn(CC(=O)Nc3ccc(OC)c(Cl)c3)c(=O)c12	inactive: -4.45%
CCCC(=O)OCc1cnc(C)c2oc(=O)c(C(=O)Nc3ccc(F)cc3C)cc12	inactive: 0%
Cc1cccc(CNC(=O)C2CCN(S(=O)(=O)c3cccc4nonc34)CC2)c1	inactive: -3.03%
CCC1=Nc2cc(C(=O)N3CCC(C)CC3)ccc2Sc2ccc(C)cc21	inactive: 2.95%

SMILES	activity change, negative = inhibition
Cc1ccc(C)c(NC(=O)C2CCCN2S(=O)(=O)c2ccc3c(c2)CCCC(=O)N3)c1 (configuration not stated)	inactive: 5.64%
COc1ccc(-c2noc(CNC(=O)c3ccc(OC)cc3OC)n2)cc1	inactive: -6.57%
COc1cccc(-c2noc(COc3cccc(C)c3C)n2)c1	inactive: 3.37%
CCOc1ccc(CCNC(=O)C2CC(=O)N(CCc3ccc(OC)c(OC)c3)C2)cc1OCC (configuration not stated)	inactive: 11.4%
Cc1ccc2nc(N3CCN(c4ccc(F)cc4)CC3)c3nnnn3c2c1	inactive: -8.95%
CCOC(=O)c1c(NC(=O)COc2ccc(OC)cc2)sc(C(=O)N(CC)CC)c1C	inactive: -0.669%
CCCCN(CC)CCNC(=O)c1nn(-c2ccc(OC)cc2)c(=O)c2c1c1ccccc1n2C	inactive: 1.34%
N#C/C(=C\c1ccccc1)c1nc(-c2cc3c(ccc4ccccc43)oc2=O)cs1	inactive: 8.34%
CCOC(=O)c1cccc(NC(=O)Cn2cnc3nc4c(cc3c2=O)CCCC4)c1	inactive: 0.279%
CCN(CC)CCCNC(=O)c1ccc2c(c1)NC(=O)C(CS(=O)(=O)Cc1ccc(F)cc1Cl)N2 (configuration not stated)	inactive: 0%
COCCNC(=O)c1sc2nc3n(c(=O)c2c1C)CCC3	inactive: 5.9%
COc1ccc(N2CC(c3nc(-c4ccccc4C)no3)CC2=O)cc1Cl (configuration not stated)	inactive: -3.76%
CCc1ccc(NS(=O)(=O)c2ccc3[nH]cc(C(=O)NCCc4ccccc4)c(=O)c3c2)cc1	inactive: -7.22%
Cc1ccc(-c2onc(C)c2C)cc1S(=O)(=O)N1CCc2ccccc21	inactive: 11.1%
Cc1cccc(CCNC(=O)CCc2c(C)nc3c(-c4ccc(F)cc4)c(C)nn3c2C)c1	inactive: -11.2%
CN1CCN(c2ccc(-c3nc(-c4ccccc4)no3)cc2[N+](=O)[O-])CC1	inactive: -11.3%
COC(=O)c1ccc(NC(=O)C(c2ccccc2)N2Cc3ccccc3C2=O)cc1 (configuration not stated)	inactive: 0.469%
Cc1nc(-c2ccc(Cl)cc2)sc1CCNC(=O)C(=O)Nc1ccccc1C#N	inactive: 1.77%
COc1ccc(N2CCN(C(=O)c3cc4c(s3)-c3c(C)cccc3OC4)CC2)cc1	inactive: -6.34%
Cc1cc(C)cc(NC(=O)C2CCCN(c3nnc(-n4c(C)ccc4C)s3)C2)c1 (configuration not stated)	inactive: -0.84%
CCCc1ccc(OC(=O)c2sc3ncn(Cc4cccc(F)c4)c(=O)c3c2C)cc1	inactive: 0.133%
COc1ccc(NC(=O)Cn2c(SCc3c(F)cccc3Cl)nc3ccncc32)cc1OC	inactive: -4.01%
COCCn1c(SCC(=O)Nc2ccc(Br)cc2)nc2c([nH]c3ccccc32)c1=O	inactive: -1.63%
CCCCN(C(=O)Nc1ccc(OCC)cc1)C1CCN(C(C)=O)CC1	inactive: 5.57%
CCN(CC)c1ccc(NC(=O)C2CCCN(S(=O)(=O)c3ccc4c(c3)oc(=O)n4C)C2)c(C)c1 (configuration not stated)	inactive: -9.41%

SMILES	activity change, negative = inhibition
CCC(Sc1nc2n[nH]c(C)c2c(=N)n1-c1ccc(Br)cc1)C(=O)N(CC)CC (configuration not stated)	inactive: -8.62%
COc1ccccc1CSc1nc2n(n1)C(c1ccccc1)C(C(=O)Nc1ccc(C)cc1)=C(C)N2 (configuration not stated)	inactive: 3.95%
CCOC(=O)c1c(S(=O)(=O)N2CCN(c3cc(Cl)ccc3C)CC2)c(C)n(C)c1C	inactive: -10.3%
Cc1ccc(NC(=O)C2CCCN(S(=O)(=O)c3ccc(C)cc3)C2)cc1 (configuration not stated)	inactive: -4.36%
COc1ccc(NC(=O)Cn2ncc3c4ccccc4n(Cc4ccccc4)c3c2=O)cc1OC	inactive: 1.7%
COc1cc(NS(=O)(=O)c2ccc3c(c2)OCC(C(=O)N2CCCC2)O3)cc(OC)c1 (configuration not stated)	inactive: -0.873%
COc1ccccc1-c1ncnn1-c1sc2c(c1C#N)CCCCC2	inactive: 4.67%
Cc1ccc(NC(=O)Cn2nc(-c3ccc(Cl)cc3)c3ccccc3c2=O)cc1	inactive: -7.09%
COc1ccc(OC)c(S(=O)(=O)NCCc2sc(C)nc2C)c1	inactive: -10.1%
Cc1c(Cl)cccc1NC(=O)CCS(=O)(=O)c1cccc2nsnc12	inactive: -1.05%
CCCCNC(=O)c1ccc(-c2nc(CN3CCc4ccccc43)c(C)o2)cc1	inactive: -4.59%
Cc1cccc(COc2ccc(-c3cc(C(F)(F)F)n4nc(C)cc4n3)cc2)c1	inactive: 1.92%
Cc1ccc(CNC(=O)CCN2C(=O)C(C)Oc3ccc(C)cc32)cc1 (configuration not stated)	inactive: -2.78%
CCc1ccc(-c2nc3cc(NC(=O)c4ccc(F)cc4)ccc3o2)cc1	inactive: 6.77%
Cc1ccc(NC(=O)CCNS(=O)(=O)c2cccs2)cc1F	inactive: 10.5%
COc1cccc(-c2nn(C)c3sc(C(=O)N4CCN(c5cccc(C(F)(F)F)c5)CC4)cc23)c1	inactive: -8.57%
Cc1cn2c(=O)cc(COC(=O)COc3ccc(F)cc3)nc2s1	inactive: -8.98%
CSc1ncc2c(n1)-c1ccccc1N(Cc1ccccc1C)S2(=O)=O	inactive: 3.84%
COc1ccc(-n2c(=O)c3c(c4cc(OC)ccc4n3C)n(Cc3c(F)cccc3Cl)c2=O)cc1	inactive: -4.4%
COc1cccc(CCNC(=O)c2cnc3sc(N4CCCC4)nn3c2=O)c1	inactive: -1.48%
Cc1cccc(-n2c3nc(=O)n(C)c(=O)c-3cc3c(C)nn(-c4ccccc4)c32)c1C	inactive: 0.242%
COC1(C(F)(F)F)NC(=O)N(c2ccc(F)cc2)C1=O (configuration not stated)	inactive: 0.968%
CSc1nc2sc3c(c2c(=O)n1-c1ccc(C)cc1)CCCC3	inactive: -0.806%
COc1ccc(Cl)cc1NC(=O)N1CCC2(CC1)Oc1ccccc1C(=O)N2Cc1ccc(F)cc1	inactive: 0.132%
CCOC(=O)C1=C(CN(CC)Cc2ccccc2)NC(=O)NC1c1ccc(Cl)cc1 (configuration not stated)	inactive: 1.22%

SMILES	activity change, negative = inhibition
COc1ccc(NC(=O)N2CCC(n3c(C)nc4cccnc43)CC2)cc1OC	inactive: 0%
CCOC(=O)c1cnn(-c2cccc(Cl)c2)c1C1CCN(C(=O)OC(C)(C)C)CC1	inactive: -8.61%
Cc1ccc(OCCSc2nc3ccc(NC(=O)COc4ccc(C)cc4)cc3s2)cc1	inactive: 0.65%
CC1CCc2c(sc3nnn(CC(=O)Nc4ccccc4Cl)c(=O)c23)C1 (configuration not stated)	inactive: -0.231%
Fc1ccc(NCc2nc3ccccc3n2CCOc2ccccc2Cl)cc1	inactive: 0%
CCCn1cc(S(=O)(=O)c2ccc(OCC)cc2)c(=O)c2cc(C)ccc21	inactive: 1.1%
CCCCC(=O)Nc1cc(-c2cn3cccnc3n2)ccc1C	inactive: -1.18%
CCOc1ccc(-c2c(C)nn3c(C)c(C(=O)NC(C)c4ccccc4)cnc23)cc1OCC (configuration not stated)	inactive: -0.979%
Cc1c(-c2cccc(NC(=O)Cc3ccccc3)c2)nc2ncccn12	inactive: 0%
O=C(CCSCc1ccccc1Cl)NCCc1ccccc1	inactive: 3.26%
O=C(Cn1ccn(-c2ccc(F)c(F)c2)c(=O)c1=O)NCc1ccccc1	inactive: 0.13%
Cc1cc(C)c(NC(=O)c2cc(S(=O)(=O)N3CCCC3)cn2C)c(C)c1	inactive: -11.7%
COc1cc(Cl)c(S(=O)(=O)N2CCN(c3c(C)cccc3C)CC2)cc1Cl	inactive: -13.7%
COc1ccc(CNc2nc(-c3ccccc3)nn2C(=O)c2ccccc2OC)cc1	inactive: -16.9%
Cc1ccc(OCCSc2nc3ccccc3n2CC(=O)N2CCOCC2)cc1C	inactive: 0.778%
CCOC(=O)c1cc2c(=O)n3ccccc3nc2n(CC2CCCO2)c1=NC(=O)c1ccc(OCC)cc1 (configuration not stated)	inactive: 2.14%
CN(Cc1ccccc1)C(=O)c1c[nH]c2ccc(S(=O)(=O)Nc3ccccc3F)cc2c1=O	inactive: 4.52%
CCOc1cc(C(=O)N2CC(=O)Nc3ccc(F)cc3C2c2ccccc2)cc(OCC)c1OCC (configuration not stated)	inactive: -2.12%
COc1cc2nc(NCCc3ccc(Cl)cc3)n3nc(-c4ccccc4)nc3c2cc1OC	inactive: -2.05%
CC(C)OCCCNC(=O)Cn1c(-c2cccs2)cc2cc(F)ccc21	inactive: 0.883%
COc1ccc(N2CCN(CCCNC(=O)c3sc4ncccc4c3-n3cccc3)CC2)cc1	inactive: -4.22%
CCN(C(=O)c1nn(C)c2c1CSc1ccccc1-2)c1cccc(C)c1	inactive: -1.87%
